In all, about 33,000 sequences were measured (“E-score (-0.5 to 0.5)”: median about -0.054, highest 2% from about 0.39 on). The list shows a part of the results.
biological target: Ylr278c (UniProt Q05854); assay: PBM E-score (8-mer binding enrichment) (E-score (-0.5 to 0.5)); higher = stronger / more preferred TF binding; most listed sequences are background and not binding sites; details: protein concentration: 200 nM; construct: GST-DNA-binding domain
Outline: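 The E-score, a modified Wilcoxon-Mann-Whitney statistic, was computed by the Universal PBM Analysis Suite for every ungapped eight-base word pooled with its reverse complement. Scans behind it were normalised with masliner after bound GST-tagged yeast transcription factors were detected with fluorescent anti-GST. The proteins, at about 100-200 nM, had been applied to universal all-10-mer Agilent arrays made double-stranded by primer extension.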

Sequence | PBM E-score
AATACGTA | -0.0884
CATGAACG | -0.14
AGTCTCAC | -0.176
GGGGGCGA | -0.0618
CTGCGTAC | -0.255
CCCAAGCC | -0.0262
AATCGATT | -0.13
CAGCCACA | -0.232
CTGGCACC | -0.0937
ACCTGCGT | 0.0415
CGCATACG | 0.135
CCTTAAGG | -0.061
GGGTTGAA | -0.0507
ATCAGTCC | 0.00653
CGCTAGGA | -0.0719
GAAGTAGC | 0.0122
AACCACAT | -0.128
GATGGGGA | 8e-05
GTGGCCAA | -0.277
GGCCTTTA | -0.0232
GGGAATCA | -0.0137
CAAAGCCG | 0.166
TAAAGGCA | -0.131
ACAAAAGT | -0.177
AAGGGACG | -0.173

Sequence | PBM E-score
CGAGTAGA | -0.143
ACAAAATC | 0.0672
ACTTGATG | -0.0136
CAGCGCCG | 0.318
CCCCTTCG | -0.0951
GCACATAA | -0.172
CCAGGTAC | -0.236
AACCTGCC | -0.16
CGGAGAAA | 0.477
CAGCAGAC | -0.0889
CCGTGTCC | 0.244
ACGTATCA | -0.117
CCAGGTAA | -0.0658
AACTAATA | 0.154
TAGAGTAA | -0.0135
AGATCAAG | -0.188
AAGGTTCG | 0.08
GTTGGCAA | -0.148
TATGTGAA | -0.341
GCCTAACC | -0.106
CAAAGTCC | 0.307
CGGTTCCC | 0.192
CTCCAGAC | -0.092
GGGACAAA | 0.0323
TAGGTTAA | -0.0815

Sequence | PBM E-score
CAACCGCC | 0.0973
CTTATGTC | 0.00842
TCCGTTAA | 0.324
AAGCGCTT | 0.178
CCGTATAC | 0.0174
CCGAGACA | 0.153
ATCCGGTG | 0.408
CATGGCCC | 0.0406
CTATAGCC | -0.192
CGGTGCAC | 0.0386
ACTATTCA | -0.08
AGAGCTAC | -0.107
ATTCAGAA | -0.1
CGGCACTC | 0.227
CCGAAGGA | 0.221
CACGATCC | 0.00826
AGGGGCCC | -0.0472
GCACAAGC | -0.0871
CTAATTAG | -0.0975
TGATAGCA | -0.105
CTGTCCGC | 0.14
AAATGATA | 0.00643
ATGTAAAT | -0.0474
GACTTTCA | 0.0465
GACAACCC | 0.0814

Sequence | PBM E-score
AGCGGATG | 0.143
ATACACGG | -0.0179
ACAACCTA | -0.131
ACATGGCC | 0.0292
TTGACCAA | -0.221
CGAAGGAG | -0.00744
ACGAGTCG | -0.159
CGTAACAA | -0.0654
ATAAACTA | -0.0104
GAGAGACC | -0.15
ACTCGAAA | -0.108
ACGTCCGC | 0.299
TACATCTA | -0.0853
ACAACCGT | -0.251
GTCTCTGA | -0.165
CGCTTTAA | -0.0356
AATGTCAC | -0.168
ATTCTGTC | -0.0952
ACATAGCT | -0.22
GTTGTCAA | -0.148
GGAATACC | 0.286
AGAAAACC | -0.0761
GCTATTAA | -0.0985
CCCGGTCA | 0.259
GCACATGA | -0.191

Sequence | PBM E-score
TCACTTAA | -0.159
ACCATTAG | 0.0698
GTAATACA | -0.119
ATATTGAC | -0.0751
AAGCCCCT | 0.00156
CGACGTTA | 0.0873
ACTACGGC | 0.132
CAAGCGGC | 0.144
GACGCGGC | 0.079
ACTTGACA | -0.224
CTCTTTAC | -0.084
TCCCGAAA | 0.238
AATCGCCA | -0.132
AGTGGTAT | -0.175
TCAAGGAA | -0.142
AAGAGTGC | -0.17
ACAAGTAT | -0.035
AATTTGGT | -0.0243
ATGCTCCG | 0.425
ACCACCCA | -0.0952
AGACTTAC | -0.224
AATGGATG | -0.226
ACAGGTAA | -0.102
ACACAACA | -0.02
AATGTTTC | -0.00717

Sequence | PBM E-score
GTTCTGGA | -0.278
CTTCCCAA | -0.107
GATATAAC | -0.0237
GTGGGGGA | -0.225
ATCACCCG | 0.191
CGATTGGC | -0.0423
CTCGTCCC | -0.00145
CTCCAGCC | -0.0584
ATTATTTG | -0.04
ACCTTTCG | 0.0202
GAGTCCGA | 0.392
GCCTAAGA | -0.216
GTGACTAA | -0.0851
ACCCACGA | -0.121
GAGGCTGA | -0.299
ATATCTCA | 0.0231
GGCGAGTA | 0.0246
TACGAGTA | -0.0577
AAGTAAGC | -0.101
CCGAGGTC | 0.298
TCTCCTCA | -0.147
GGAGTCTA | -0.00849
ATCCTTAA | -0.336
CCGTCGAA | 0.118
AAATATTA | 0.0467

Sequence | PBM E-score
ACGAGGTA | -0.047
ATCAATCC | 0.0383
CATATTTC | 0.0331
CCGATTGC | 0.271
CGTTCCCA | -0.229
CAACAATG | -0.0382
CCCCATAG | -0.0583
GTGGACAC | -0.0491
ATAGTCCA | -0.109
AGCATCAG | -0.15
CTATAGGC | -0.116
CTTGAAAG | -0.221
CCACCGAG | -0.0139
GCGCGAGC | 0.113
ACACTATG | -0.147
ACTTGTAT | -0.19
GGGCAACC | -0.076
AGCTCAAG | -0.341
CCGCAAAC | 0.247
TACCCAAA | -0.088
GGGGTGAC | -0.0399
CTGAGTTC | 0.0225
